This is an account of results in US20100172907A1 (Hoffmann-La Roche, published 2010).

Positions count from the first letter of the chain named. Groups on a side chain read outwards from the residue. No end group written: not given here. NSMP = not defined here

B1: MS-Roche #8.2 Fab (Fab, V domains shown)
VH: [not shown - about 100 residues]LLSRGYNGYYHKFDVWGQGTLVTVSS
VL: DIVLTQSPATLSLSPGERATLSCRASQSVSSSYLAWYQQKPGQAPRLLIYGASSRATGVPARFSGSGSGTDFTLTISSLEPEDFATYYCQQLSSYPPTFGQGTKVEIKR
B2: MS-Roche #8.1 Fab (Fab, V domains shown)
VH: [not shown - about 100 residues]LLSRGYNGYYHKFDVWGQGTLVTVSS
VL: B1 VL with S94N
B3: MS-Roche #3.3 Fab (Fab, V domains shown)
VH: [not shown - about 100 residues]LTHYARYYRYFDVWGQGTLVTVSS
VL: B1 VL with T86V, Q90H, L92M
B4: MS-Roche #7.4 Fab (Fab, V domains shown)
VH: [not shown - about 100 residues]GKGNTHKPYGYVRYFDVWGQGTLVTVSS
VL: B1 VL with T86V, L92I, S93Y, S94N, Y95F, P97H
notes: also called MS-R #7.4
B5: MS-Roche #7.3 Fab (Fab, V domains shown)
VH: [not shown - about 100 residues]GKGNTHKPYGYVRYFDVWGQGTLVTVSS
VL: B1 VL with T86V, Q90H, L92V, S93Y, Y95H, P97F
B6: MS-Roche #8 Fab (Fab, V domains shown)
VH: [not shown - about 100 residues]LLSRGYNGYYHKFDVWGQGTLVTVSS
VL: B1 VL with Y95F
notes: parental HuCAL Fab; also called MSR-8 Fab; MS-R 8
B7: MS-R #3.3 IgG1 (antibody, V domains shown)
VH: [not shown - about 100 residues]LTHYARYYRYFDVWGQGTLVTVSS
VL: B1 VL with T86V, Q90H, L92M
notes: also called MS-R IgG 3.3
B8: MS-R #8.1 IgG1 (antibody, V domains shown)
VH: [not shown - about 100 residues]LLSRGYNGYYHKFDVWGQGTLVTVSS
VL: B1 VL with S94N
notes: full-length human IgG1

One experiment has as its target T1, Aβ (1-42) peptide (human).
T1 construct: also called Aβ1-42 fibers; Aβ4
Description: SPR, immobilized fibers. (In general: In SPR one partner is held on a chip, and binding of the other changes the refractive index at the surface.)
B1 gave a Kd of 64 nM.

B2: the Kd was determined as 42 nM.

With B3, the Kd was found to be 104 nM.

For the molecule B4, the Kd is 103 nM.

Molecule B5 yielded a Kd of 88 nM.

As to B6, the dissociation constant (Kd) is 1000 nM.

A further experiment has as its target T2, human Aβ (1-40) peptide (human).
T2 construct: also called Aβ1-40 fibers
The experiment in a line: SPR, immobilized fibers.
Consider B1, for which binding was put at a Kd of 24 nM.

In the case of B2, the equilibrium dissociation constant (Kd) was determined as 24 nM.

B3 registered a dissociation constant (Kd) of 38 nM.

With B4, binding was characterised by a dissociation constant (Kd) of 28 nM.

As to B5, the affinity, expressed as Kd, was 23 nM.

For another experiment, the target named is T3, BSA-conjugated Aβ heptapeptide LVFFAEC (reading uncertain; also: BSA conjugate).
T3 construct: also called Peptide 17-22
T3 peptide: LVFFAEC([NSMP-BSA])
The experiment in a line: ELISA.
Regarding B1, the “OD ratio 17-22/BSA” value turned out to be 4 and the “Peptide-ratio 17-22/2-7” value worked out at 0.13.

As for B4, the “OD ratio 17-22/BSA” value came to 10 and the “Peptide-ratio 17-22/2-7” value amounted to 0.28.

B5: the “OD ratio 17-22/BSA” value was found to be 11 and the “Peptide-ratio 17-22/2-7” value was determined as 0.32.

In the case of B6, the “OD ratio 17-22/BSA” value was found to be 10 and the “Peptide-ratio 17-22/2-7” value amounted to 0.36.

For another experiment, the target named is T4, BSA-conjugated Aβ heptapeptide FFAEDVC (C-terminal Cys coupled to NSMP-activated BSA).
T4 construct: also called Peptide 19-24
T4 peptide: FFAEDVC
Description: ELISA.
Consider B1, for which the “OD ratio 19-24/BSA” value was determined as 23 and the “Peptide-ratio 19-24/2-7” value was determined as 0.72.

For B2, the “OD ratio 19-24/BSA” value was found to be 8 and the “Peptide-ratio 19-24/2-7” value came out at 0.27.

As to B4, the “OD ratio 19-24/BSA” value came to 6 and the “Peptide-ratio 19-24/2-7” value was determined as 0.17.

Consider B5, for which the “OD ratio 19-24/BSA” value worked out at 9 and the “Peptide-ratio 19-24/2-7” value was 0.26.

In the case of B6, the “OD ratio 19-24/BSA” value came out at 25 and the “Peptide-ratio 19-24/2-7” value amounted to 0.89.

A further experiment has as its target T5, BSA-conjugated Aβ heptapeptide VFFAEDC (C-terminal Cys coupled to NSMP-activated BSA).
T5 construct: also called Peptide 18-23
T5 peptide: VFFAEDC
Description: ELISA.
Take B1: the “OD ratio 18-23/BSA” value was determined as 28 and the “Peptide-ratio 18-23/2-7” value came out at 0.88.

Regarding B2, the “OD ratio 18-23/BSA” value was 11 and the “Peptide-ratio 18-23/2-7” value came to 0.37.

B4: the “OD ratio 18-23/BSA” value amounted to 13 and the “Peptide-ratio 18-23/2-7” value was found to be 0.36.

B5: the “OD ratio 18-23/BSA” value stood at 15 and the “Peptide-ratio 18-23/2-7” value came to 0.44.

For B6, the “OD ratio 18-23/BSA” value was 29 and the “Peptide-ratio 18-23/2-7” value came out at 1.04.

For a further experiment, the target named is T6, BSA-conjugated Aβ heptapeptide AEFRHDC (C-terminal Cys coupled to NSMP-activated BSA).
T6 construct: also called Peptide 2-7
T6 peptide: AEFRHDC
Description: ELISA. (In general: An ELISA detects its analyte on a solid surface through an enzyme-linked reagent.)
For the molecule B1, the “OD ratio 2-7/BSA” value stood at 32.

Take B2: the “OD ratio 2-7/BSA” value came out at 30.

B4: the “OD ratio 2-7/BSA” value was determined as 36.

With B5, the “OD ratio 2-7/BSA” value was found to be 34.

In the case of B6, the “OD ratio 2-7/BSA” value came out at 28.

Another experiment deals with T3, BSA-conjugated Aβ heptapeptide LVFFAEC. The experiment in a line: ELISA. This is another data set of the same source.
Take B7: the “OD ratio 17-22/BSA” value was 11 and the “Peptide-ratio 17-22/2-7” value was found to be 0.65.

With B8, the “OD ratio 17-22/BSA” value was determined as 7 and the “Peptide-ratio 17-22/2-7” value was determined as 0.44.

Another experiment addresses T4, BSA-conjugated Aβ heptapeptide FFAEDVC. Description: ELISA. The source holds these as a separate data set.
As for B7, the “OD ratio 19-24/BSA” value was found to be 11 and the “Peptide-ratio 19-24/2-7” value is 0.65.

For the molecule B8, the “OD ratio 19-24/BSA” value is 14 and the “Peptide-ratio 19-24/2-7” value came to 0.88.

The target in a further experiment is T5, BSA-conjugated Aβ heptapeptide VFFAEDC. The experiment in a line: ELISA. This is another data set of the same source.
Regarding B7, the “OD ratio 18-23/BSA” value was determined as 16 and the “Peptide-ratio 18-23/2-7” value was found to be 0.94.

In the case of B8, the “OD ratio 18-23/BSA” value came to 16 and the “Peptide-ratio 18-23/2-7” value is 1.

In another experiment the target is T6, BSA-conjugated Aβ heptapeptide AEFRHDC. The experiment in a line: ELISA. The source holds these as a separate data set.
In the case of B7, the “OD ratio 2-7/BSA” value stood at 17.

On to B8, for which the “OD ratio 2-7/BSA” value worked out at 16.

A further experiment concerns the target T1, Aβ (1-42) peptide. The experiment in a line: SPR, immobilized fibers. The source holds these as a separate data set.
As to B7, the affinity, expressed as Kd, was 6.6 nM.

The molecule B8 displayed a Kd of 12.3 nM.

The next experiment has as its target T2, human Aβ (1-40) peptide. The experiment in a line: SPR, immobilized fibers. The source holds these as a separate data set.
In the case of B7, the Kd stood at 3.7 nM.

Regarding B8, the Kd came to 6.6 nM.

The next experiment concerns the target T1, Aβ (1-42) peptide. The experiment in a line: SPR, immobilized fibers. The source holds these as a separate data set.
With B7, binding was characterised by a dissociation constant (Kd) of 6.6 nM.

B8 returned a dissociation constant (Kd) of 12.3 nM.

The target in another experiment is T2, human Aβ (1-40) peptide. Description: SPR, immobilized fibers. This is another data set of the same source.
As to B8, the Kd turned out to be 6.6 nM.

For orientation: Kd means the constant that tells how readily two partners part at equilibrium. Read a high Kd as weaker binding.
